Measured values: patent US11000038B2, “Pyridone compounds and agricultural and horticultural fungicides containing the same as active ingredients” (priority 2017, dated 2021)

Assays:
[1] = system: tomato late blight fungi (Phytophthora infestans); format: in vivo; conditions: spray treatment of tomato plants; control value=100{1-(n/3)}
[2] = system: cucumber anthracnose fungi (Colletotrichum orbiculare); test: Test Example H: cucumber anthracnose, spray treatment of cucumber plants; conditions: 250 ppm spray, 2.5 ml/pot, cucumber Sagami Hanjiro; 6 to 10 days from inoculation
[3] = system: rice blast fungi (Magnaporthe grisea); format: in vivo; conditions: spray treatment of rice plants; control value=100{1-(n/3)}

Row | SMILES | Test F control value class (tomato late blight) [1] | Test H control value class (cucumber anthracnose) [2] | Test A control value class (rice blast) [3]
1 | O=c1c(Cl)cn(-c2ccon2)c(-c2c(F)cc(F)cc2F)c1Cl [Compound 128] | L (L shows the control value of 50% or less) | H (H shows the control value of more than 50%) | H (H shows the control value of more than 50%)
2 | O=c1c(Cl)cn(-c2ccon2)c(-c2c(F)cc(F)cc2F)c1Br [Compound 129] | L (L shows the control value of 50% or less) | H (H shows the control value of more than 50%) | H (H shows the control value of more than 50%)
3 | COc1cc(F)c(-c2c(Br)c(=O)c(Br)cn2-c2ccon2)c(F)c1 [Compound 130] | H (H shows the control value of more than 50%) | H (H shows the control value of more than 50%) | H (H shows the control value of more than 50%)
4 | COc1cc(F)c(-c2c(Cl)c(=O)c(Br)cn2-c2ccon2)c(F)c1 [Compound 131] | L (L shows the control value of 50% or less) | H (H shows the control value of more than 50%) | H (H shows the control value of more than 50%)
5 | COc1cc(F)c(-c2c(Br)c(=O)c(Cl)cn2CC(C)C)c(F)c1 [Compound 132] | H (H shows the control value of more than 50%) | H (H shows the control value of more than 50%) | H (H shows the control value of more than 50%)
6 | COc1cc(F)c(-c2c(Br)c(=O)c(Br)cn2CC(C)C)c(F)c1 [Compound 133] | L (L shows the control value of 50% or less) | H (H shows the control value of more than 50%) | H (H shows the control value of more than 50%)
7 | CC(C)C(C)n1cc(Br)c(=O)c(F)c1-c1c(F)cc(F)cc1F (stereo not drawn) [Compound 134] | L (L shows the control value of 50% or less) | H (H shows the control value of more than 50%) | H (H shows the control value of more than 50%)
8 | Cc1cn(C(C)C(C)C)c(-c2c(F)cc(F)cc2F)c(Cl)c1=O (stereo not drawn) [Compound 135] | L (L shows the control value of 50% or less) | H (H shows the control value of more than 50%) | H (H shows the control value of more than 50%)
9 | CC(=O)c1cn(C(C)C(C)C)c(-c2c(F)cc(F)cc2F)c(Cl)c1=O (stereo not drawn) [Compound 136] | H (H shows the control value of more than 50%) | H (H shows the control value of more than 50%) | L (L shows the control value of 50% or less)
10 | CC(C)C(C)n1cc(C(F)(F)F)c(=O)c(Cl)c1-c1c(F)cc(F)cc1F (stereo not drawn) [Compound 137] | L (L shows the control value of 50% or less) | L (L shows the control value of 50% or less) | L (L shows the control value of 50% or less)
11 | Cc1cc(-n2cc(Cl)c(=O)c(Cl)c2-c2c(F)cc(F)cc2F)no1 [Compound 138] | L (L shows the control value of 50% or less) | H (H shows the control value of more than 50%) | H (H shows the control value of more than 50%)
12 | O=c1c(Br)cn(-c2cccc(Cl)c2)c(-c2c(F)cc(F)cc2F)c1Cl [Compound 139] | L (L shows the control value of 50% or less) | H (H shows the control value of more than 50%) | H (H shows the control value of more than 50%)
13 | O=c1c(Br)cn(-c2cccc(Cl)c2)c(-c2c(F)cc(F)cc2F)c1Br [Compound 140] | L (L shows the control value of 50% or less) | L (L shows the control value of 50% or less) | H (H shows the control value of more than 50%)
14 | Cc1ccc(C)c(-n2cc(Br)c(=O)c(Cl)c2-c2c(F)cc(F)cc2F)c1 [Compound 143] | L (L shows the control value of 50% or less) | H (H shows the control value of more than 50%) | H (H shows the control value of more than 50%)
15 | Cc1ccc(C)c(-n2cc(Br)c(=O)c(Br)c2-c2c(F)cc(F)cc2F)c1 [Compound 144] | L (L shows the control value of 50% or less) | H (H shows the control value of more than 50%) | H (H shows the control value of more than 50%)
16 | CCOC(=O)Cn1cc(Cl)c(=O)c(Cl)c1-c1c(F)cc(F)cc1F [Compound 145] | L (L shows the control value of 50% or less) | L (L shows the control value of 50% or less) | L (L shows the control value of 50% or less)
17 | Cc1cc(-n2cc(Br)c(=O)c(Br)c2-c2c(F)cc(F)cc2F)no1 [Compound 146] | L (L shows the control value of 50% or less) | L (L shows the control value of 50% or less) | H (H shows the control value of more than 50%)
18 | Cc1onc(-n2cc(Br)c(=O)c(Br)c2-c2c(F)cc(F)cc2F)c1Br [Compound 147] | H (H shows the control value of more than 50%) | H (H shows the control value of more than 50%) | H (H shows the control value of more than 50%)
19 | Cc1ccc(C)c(-n2cc(Cl)c(=O)c(Br)c2-c2c(F)cc(F)cc2F)c1 [Compound 148] | L (L shows the control value of 50% or less) | H (H shows the control value of more than 50%) | H (H shows the control value of more than 50%)
20 | Cc1ccc(C)c(-n2cc(Cl)c(=O)c(Cl)c2-c2c(F)cc(F)cc2F)c1 [Compound 149] | L (L shows the control value of 50% or less) | H (H shows the control value of more than 50%) | H (H shows the control value of more than 50%)
21 | CCOC(=O)Cn1cc(Cl)c(=O)c(Br)c1-c1c(F)cc(F)cc1F [Compound 150] | L (L shows the control value of 50% or less) | L (L shows the control value of 50% or less) | L (L shows the control value of 50% or less)
22 | Cc1c(-c2c(F)cc(F)cc2F)n(C(C)C(C)C)cc(Br)c1=O (stereo not drawn) [Compound 151] | L (L shows the control value of 50% or less) | H (H shows the control value of more than 50%) | H (H shows the control value of more than 50%)
